# Assay results: PubChem BioAssay (Tox21)
# “And” between values parts separate entries of the source, which are not always exact repeats. Equal values may be shown once. The shares of active, inactive and inconclusive entries below differ from those in the screen. Where the call is inconclusive, the potency comes from a doubtful curve fit. Some compounds were tested as several samples or in several runs, with calls that do not always agree. The source made the active and inactive calls. The call rests on the fitted dose curve; in most records, active means well fitted cell-killing curve with a large enough effect in the repeat runs (not every such curve was filed as active); inconclusive means weak or mixed curves, or effect the other way; inactive means no such curve, though single readings can be large or run the other way.
# Assay: qHTS assay to identify small molecule antagonists of the estrogen related receptor signaling pathway with the pleiotropic PPARgamma coactivator (PGC) from Tox21 10K library - cell viability counter screen (AID 1224840); further: nearly all actives have a fitted effect of over 40% in size
# Conditions: PGC/ERR reporter cells viability, CellTiter-Fluor, 17.5 h; series mostly up to 92.4 µM
# Outline: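 Counter-screen for cytotoxicity: after 17.5 h compound exposure at 37 C, CellTiter-Fluor reagent added to PGC/ERR cells for 30 min and fluorescence read. Cells were seeded at 2,000 per well 6 h before dosing.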
# Potency means the concentration at half of the fitted maximal effect; tags describe the fitted curve by direction and shape.
row,Structure (SMILES),Potency
1,Cc1cc(F)ccc1-c1cc(N2CC[C@@H](O)[C@H]2CO)ncc1N(C)C(=O)C(C)(C)c1cc(C(F)(F)F)cc(C(F)(F)F)c1,"inconclusive: 17 µM [cytotoxic, partial curve]"
2,CCc1cc(Cc2cc(CC)c(N)c(CC)c2)cc(CC)c1N,"inconclusive: 68.6 µM [cytotoxic, partial curve, poor fit]"
3,CC(O)(c1ccc(Cl)cc1)c1ccc(Cl)cc1,"inconclusive: 68.6 µM [cytotoxic, single point]"
4,[O-][n+]1ccccc1SSc1cccc[n+]1[O-],"inconclusive: 0.517 µM [cytotoxic, full curve]"
5,Oc1c(Cl)cc(Cl)c2cccnc12,active: 26.6 µM
6,CCN(CC)CCOc1ccc(/C(=C(\Cl)c2ccccc2)c2ccccc2)cc1,active: 49.6 µM and inconclusive: 26.6 µM [cytotoxic]
7,Cc1ccc(-n2[nH]c(C)c(N=Nc3cccc(-c4cccc(C(=O)O)c4)c3O)c2=O)cc1C,"inconclusive: 26.6 µM [cytotoxic, partial curve]"
8,CCc1cc(SCc2sc(-c3ccc(C(F)(F)F)cc3)nc2CN2CCN(c3ccc(OC)cc3)CC2)ccc1OCC(=O)O,active: 34.4 µM
9,c1ccc2n[nH]nc2c1,inactive
10,S=C(NC1CCCCC1)NC1CCCCC1,"inconclusive: 37.8 µM [cytotoxic, partial curve, poor fit] and inconclusive: 21.7 µM [cytotoxic]"
11,COC(=O)C1=C(C)NC(C)=C(C(=O)OC)C1c1ccccc1[N+](=O)[O-],"inconclusive: 61.2 µM [cytotoxic, partial curve]"
12,CCCCCCCCn1sc(Cl)c(Cl)c1=O,inconclusive: 68.6 µM [cytotoxic]
13,COc1cc([C@@H]2c3cc4c(cc3[C@@H](O[C@@H]3O[C@@H]5CO[C@@H](C)O[C@H]5[C@H](O)[C@H]3O)[C@H]3COC(=O)[C@H]23)OCO4)cc(OC)c1O,"inconclusive: 48 µM [cytotoxic, partial curve]"
14,CCCCCCCCCCCCc1ccccc1O,active: 48.6 µM
15,CCCCCCCCCCCC(=O)NCCCN(C)C,active: 61.1 µM
16,CC[C@]1(O)C[C@H]2CN(CCc3c([nH]c4ccccc34)[C@@](C(=O)OC)(c3cc4c(cc3OC)N(C=O)[C@H]3[C@@](O)(C(=O)OC)[C@H](OC(C)=O)[C@]5(CC)C=CCN6CC[C@]43[C@@H]65)C2)C1,"inconclusive: 0.0188 µM [cytotoxic, full curve, poor fit]"
17,Cc1cc(Cc2cc(C)cc(C(C)(C)C)c2O)c(O)c(C(C)(C)C)c1,active: 48.8 µM and active: 43.3 µM
18,Cc1c2ccccc2c(C)c2c1ccc1ccccc12,active: 53.9 µM and active: 27.3 µM
